{"source": "patent US20240174727A1", "about": "“LONG-ACTING NATRIURETIC PEPTIDES AND USES THEREOF” (Eli Lilly and Company, priority 2022, published 2024)", "key": {"plasma cGMP [1]": {"tested_on": "plasma cGMP", "experiment": "In vivo dog studies, plasma cGMP ELISA", "design": "species or system male purebred beagle dogs", "settings": "for Net cGMP (nM) Change from Baseline: dog plasma, single SC dose (60 nmol/kg Example 2; 50 nmol/kg Examples 4, 7)"}, "plasma cGMP [2]": {"tested_on": "plasma cGMP", "experiment": "In vivo monkey studies, plasma cGMP ELISA", "design": "species or system male cynomolgus monkeys", "settings": "monkey plasma; for Net cGMP (nM) Change from Baseline 2 h: 2 h postdose; for Net cGMP (nM) Change from Baseline 4 h: 4 h postdose; for Net cGMP (nM) Change from Baseline 8 h: 8 h postdose; for Net cGMP (nM) Change from Baseline 12 h: 12 h postdose; for Net cGMP (nM) Change from Baseline 24 h: 24 h postdose; for Net cGMP (nM) Change from Baseline 36 h: 36 h postdose", "protocol": "In vivo monkey studies were conducted as described in detail below. Young adult-to-adult male cynomolgus monkeys were given a single dose subcutaneously (SC). Blood was collected predose and at various pre-determined timepoints throughout the study period. Aliquot of cynomolgus monkey plasma was received for cyclic cGMP (cGMP) measurement and stored at −80° C. prior to use.\nControl plasma was made for determining the recovery rate of spike-in cGMP using Enzo cGMP complete ELISA kit (Enzo Life Sciences, Inc, Farmingdale, NY, cat no. ADI-901-164). Briefly, blood from male Sprague Dawley rats (Inotiv, Indianapolis, IN), about 7 months old, was collected in a BD Vacutainer EDTA tube (Becton Dickinson, Franklin Lakes, NJ, cat no. BD-367856) with volume of approximate 4 mL through retro orbital bleeding. Plasma was prepared by spinning the tube in an Eppendorf Refrigerated Centrifuge 5810R (Brinkman Instruments, Inc, Westbury, NY) at 3500 rpm (3000×g) for 10 min at 4° C. Plasma was collected as Positive Control plasma. Cyclic GMP (cGMP standard from Enzo cGMP complete ELISA kit) was added to the positive control plasma at a final concentration of additional 40 nM. Positive Control and Spiked-in Control plasma were aliquoted and stored at −80° C.\nThe cGMP content was measured using the Enzo cGMP complete ELISA kit following the manufacturer's directions with modifications as described below. The cGMP standards provided in the kit were diluted 1:3 ranging from 50 nM to 0.023 nM in 1× assay buffer that was diluted in water from 2× assay buffer provided in the kit. The cGMP standards ([…]) were transferred to a 96-well polypropylene plate (Thermo Scientific, cat no. 442587).\nPlasma samples were thawed from −80° C. and diluted 1:20 in 1× assay buffer in the above plate with a final volume of 150 μL. Assay buffer was added (150 μL) for both a non-specific binding control (in the absence of cGMP antibody) and a maximum binding control (in the absence of competing cGMP) in duplicate wells. Positive Control and Spiked-in Control plasma were diluted 1:20 in 1× assay buffer with a final volume of 150 μL in duplicate wells of the above plate. All diluted plasma was mixed by pipetting up and down several times.\nAcetylation reagent mix was prepared by adding 1-part of acetic anhydride into 2-parts of triethylamine provided in the kit and mixing well using Vortex (Scientific Industries, Inc, Bohemia, NY). All controls, standards, and plasma samples were acetylated by adding 15 μL of acetylation reagent mix into the plate, one column at a time, and shaking for 1 min on a Titer Plate Shaker (Lab-Line Instrument, Inc., Melrose Park, IL) at room temperature. The plate was shaken for an additional 1 min following the acetylation of the last column to ensure the reaction was completed.\nAcetylated controls, standard and plasma samples were transferred (100 μL) to an ELISA plate (n=1). Then 50 μL of cGMP conjugate were added to each well followed by the addition of 50 μL cGMP antibody to each well except for two non-specific binding wells, in which 50 μL of 1× assay buffer were added. The plate was then sealed and shaken for 2 h at room temperature on the plate shaker. Following this incubation, the plate was washed five times using 200 μL of 1× wash buffer diluted in water from 5× wash buffer provided in the kit. Then, 200 μL of para-Nitrophenylphosphate (pNpp) were added to each well. The plate was sealed with a new plate sealer and shaken in dark for 1 h at room temperature on the plate shaker. Finally, 50 μL of stop solution were added to each well to stop the enzyme reaction. The plate was then read at 405 nm using SpectraMax Plus (Molecular Devices, San Jose, CA).\nThe mean absorbance at 405 nm (O.D. 405 nm) for the non-specific binding controls was subtracted from the O.D. 405 nm of all samples. The subtracted O.D. 405 nm of all samples were then normalized with the mean subtracted O.D. 405 nm of the maximum binding controls as B/B0%. […]"}}, "note": "At least one compound was matched to its structure with a doubt left. Some compounds share one wording; it may come from a single statement."}
{"smiles": "CC[C@H](C)[C@@H]1NC(=O)[C@H](CCCNC(=N)N)NC(=O)[C@H](CC(=O)O)NC(=O)[C@H]([C@@H](C)CC)NC(=O)[C@H](CCCNC(=N)N)NC(=O)[C@H](CCCCN)NC(=O)CNC(=O)[C@H](Cc2ccccc2)NC(=O)[C@@H](NC(=O)[C@H](CO)NC(=O)[C@H](CO)NC(=O)[C@H](CCCNC(=N)N)NC(=O)CCNC(=O)[C@H](CCCCN)NC(=O)[C@H](CCC(=O)O)NC(=O)CCOCCOCCOCCOCCOCCOCCOCCOCCOCCOCCOCCOCCOCCOCCOCCOCCOCCOCCOCCOCCOCCOCCOCCOCCNC(=O)CNC(=O)[C@H](CCCCN)NC(=O)[C@H](CCC(=O)O)NC(=O)[C@H](CCCCN)NC(=O)[C@H](CCC(=O)O)NC(=O)[C@H](CCCCN)NC(=O)[C@H](CCC(=O)O)NC(=O)CC[C@H](NC(=O)CCCCCCCCCCCCCCCCCCC(=O)O)C(=O)O)CSCSC[C@@H](C(=O)N2CCC[C@H]2C(=O)N[C@@H](CO)C(=O)N[C@@H](Cc2ccccc2)C(=O)N[C@@H](CCCNC(=N)N)C(=O)N[C@@H](Cc2c[nH]cn2)C(=O)NCC(=O)N[C@@H](CO)C(=O)N2CCC[C@H]2C(=O)N[C@@H](CO)C(=O)N[C@@H](CO)C(=O)NCC(=O)N[C@@H](C)C(=O)N2CCC[C@H]2C(=O)N2CCC[C@H]2C(=O)N2CCC[C@H]2C(=O)N[C@@H](CO)C(N)=O)NC(=O)CNC(=O)[C@H](CC(C)C)NC(=O)CNC(=O)[C@H](CO)NC(=O)[C@H](CCC(N)=O)NC(=O)[C@H](Cc2c[nH]cn2)NC(=O)CNC1=O", "note": "[Example 4]", "values": [{"measurement": "Net cGMP (nM) Change from Baseline", "setting": "plasma cGMP [1]; 0.083 h", "result": 3.08, "unit": "nM"}, {"measurement": "Net cGMP (nM) Change from Baseline", "setting": "plasma cGMP [1]; 0.25 h", "result": 11.23, "unit": "nM"}, {"measurement": "Net cGMP (nM) Change from Baseline", "setting": "plasma cGMP [1]; 0.5 h", "result": 25.02, "unit": "nM"}, {"measurement": "Net cGMP (nM) Change from Baseline", "setting": "plasma cGMP [1]; 1 h", "result": 58.72, "unit": "nM"}, {"measurement": "Net cGMP (nM) Change from Baseline", "setting": "plasma cGMP [1]; 2 h", "result": 73.34, "unit": "nM"}, {"measurement": "Net cGMP (nM) Change from Baseline", "setting": "plasma cGMP [1]; 4 h", "result": 122.98, "unit": "nM"}, {"measurement": "Net cGMP (nM) Change from Baseline", "setting": "plasma cGMP [1]; 8 h", "result": 157.34, "unit": "nM"}, {"measurement": "Net cGMP (nM) Change from Baseline", "setting": "plasma cGMP [1]; 12 h", "result": 147.25, "unit": "nM"}, {"measurement": "Net cGMP (nM) Change from Baseline", "setting": "plasma cGMP [1]; 24 h", "result": 111.73, "unit": "nM"}, {"measurement": "Net cGMP (nM) Change from Baseline", "setting": "plasma cGMP [1]; 36 h", "result": 81.07, "unit": "nM"}, {"measurement": "Net cGMP (nM) Change from Baseline", "setting": "plasma cGMP [1]; 48 h", "result": 74.31, "unit": "nM"}, {"measurement": "Net cGMP (nM) Change from Baseline", "setting": "plasma cGMP [1]; 72 h", "result": 75.82, "unit": "nM"}, {"measurement": "Net cGMP (nM) Change from Baseline", "setting": "plasma cGMP [1]; 96 h", "result": 64.23, "unit": "nM"}, {"measurement": "Net cGMP (nM) Change from Baseline", "setting": "plasma cGMP [1]; 120 h", "result": 80.48, "unit": "nM"}, {"measurement": "Net cGMP (nM) Change from Baseline", "setting": "plasma cGMP [1]; 144 h", "result": 77.03, "unit": "nM"}, {"measurement": "Net cGMP (nM) Change from Baseline", "setting": "plasma cGMP [1]; 168 h", "result": 65.74, "unit": "nM"}, {"measurement": "net cGMP levels (result in words)", "setting": "plasma cGMP [1]; dogs, single SC dose, plasma", "result": "increased net cGMP levels"}, {"measurement": "Net cGMP (nM) Change from Baseline 0.083 h", "setting": "plasma cGMP [2]; dose 3 nmol/kg, 0.083 h postdose", "result": -0.83, "unit": "nM"}, {"measurement": "Net cGMP (nM) Change from Baseline 0.25 h", "setting": "plasma cGMP [2]; dose 3 nmol/kg, 0.25 h postdose", "result": -0.4, "unit": "nM"}, {"measurement": "Net cGMP (nM) Change from Baseline 0.5 h", "setting": "plasma cGMP [2]; dose 3 nmol/kg, 0.5 h postdose", "result": -0.15, "unit": "nM"}, {"measurement": "Net cGMP (nM) Change from Baseline 1 h", "setting": "plasma cGMP [2]; dose 3 nmol/kg, 1 h postdose", "result": -0.79, "unit": "nM"}, {"measurement": "Net cGMP (nM) Change from Baseline 2 h", "setting": "plasma cGMP [2]; dose 3 nmol/kg", "result": -0.76, "unit": "nM"}, {"measurement": "Net cGMP (nM) Change from Baseline 4 h", "setting": "plasma cGMP [2]; dose 3 nmol/kg", "result": -0.47, "unit": "nM"}, {"measurement": "Net cGMP (nM) Change from Baseline 8 h", "setting": "plasma cGMP [2]; dose 3 nmol/kg", "result": 3.72, "unit": "nM"}, {"measurement": "Net cGMP (nM) Change from Baseline 12 h", "setting": "plasma cGMP [2]; dose 3 nmol/kg", "result": 7.53, "unit": "nM"}, {"measurement": "Net cGMP (nM) Change from Baseline 24 h", "setting": "plasma cGMP [2]; dose 3 nmol/kg", "result": 5.4, "unit": "nM"}, {"measurement": "Net cGMP (nM) Change from Baseline 36 h", "setting": "plasma cGMP [2]; dose 3 nmol/kg", "result": 11.74, "unit": "nM"}, {"measurement": "Net cGMP (nM) Change from Baseline 48 h", "setting": "plasma cGMP [2]; dose 3 nmol/kg, 48 h postdose", "result": 2.99, "unit": "nM"}, {"measurement": "Net cGMP (nM) Change from Baseline 72 h", "setting": "plasma cGMP [2]; dose 3 nmol/kg, 72 h postdose", "result": 0.03, "unit": "nM"}, {"measurement": "Net cGMP (nM) Change from Baseline 96 h", "setting": "plasma cGMP [2]; dose 3 nmol/kg, 96 h postdose", "result": -1.15, "unit": "nM"}, {"measurement": "Net cGMP (nM) Change from Baseline 120 h", "setting": "plasma cGMP [2]; dose 3 nmol/kg, 120 h postdose", "result": -0.02, "unit": "nM"}, {"measurement": "Net cGMP (nM) Change from Baseline 144 h", "setting": "plasma cGMP [2]; dose 3 nmol/kg, 144 h postdose", "result": 0.16, "unit": "nM"}, {"measurement": "Net cGMP (nM) Change from Baseline 168 h", "setting": "plasma cGMP [2]; dose 3 nmol/kg, 168 h postdose", "result": -2.03, "unit": "nM"}, {"measurement": "Net cGMP (nM) Change from Baseline 2 h", "setting": "plasma cGMP [2]; dose 10 nmol/kg", "result": 4.57, "unit": "nM"}, {"measurement": "Net cGMP (nM) Change from Baseline 4 h", "setting": "plasma cGMP [2]; dose 10 nmol/kg", "result": 12.42, "unit": "nM"}, {"measurement": "Net cGMP (nM) Change from Baseline 8 h", "setting": "plasma cGMP [2]; dose 10 nmol/kg", "result": 14.86, "unit": "nM"}, {"measurement": "Net cGMP (nM) Change from Baseline 12 h", "setting": "plasma cGMP [2]; dose 10 nmol/kg", "result": 16, "unit": "nM"}, {"measurement": "Net cGMP (nM) Change from Baseline 24 h", "setting": "plasma cGMP [2]; dose 10 nmol/kg", "result": 14.43, "unit": "nM"}, {"measurement": "Net cGMP (nM) Change from Baseline 36 h", "setting": "plasma cGMP [2]; dose 10 nmol/kg", "result": 20.84, "unit": "nM"}]}
